± gives the standard deviation of the averaged measurements. Some of the results follow.
These sequences were tested on PfAP2-EXP AP2 domain (GST-tagged) (assay: gcPBM binding intensity (ln(normalized median fluorescence intensity)); higher = stronger DNA binding).
In short: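 Probes on an Agilent 4 × 180k array were primer-extended, double-stranded and 36 bp long, taken from intergenic genomic regions, with negative controls added. GST-tagged P. falciparum DNA-binding domains from E. coli, about 25 μg on average, were applied to the array for 1 h in 1× PBS containing 1% milk, 0.2 mg/ml BSA, 0.5% salmon testes DNA and 0.03% Triton X-100. Binding intensity, obtained after Alexa488 anti-GST antibody detection and a 488 nm scan, is the highest Masliner-normalised natural-log median intensity across replicate spots of either probe orientation.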
With “TATATATATGAGTATACACACCTGATAAAGGTATAT [CACACA_site5462]” the “gcPBM binding intensity (ln)” value was 8.53 ± 0.39. In the case of “GATTACTAGAAATGCACACACTGATAAAATAAGGAA [CACACA_site6131]”, the “gcPBM binding intensity (ln)” value is reported as 8.88 ± 0.37. With “TTAAACTTGAAACACACACACACACCGATATAAAAA [CACACA_site4578]” the “gcPBM binding intensity (ln)” value was 8.71 ± 0.53. For “AGATTGGAACATTAAAGTACTTACTTTTTTTTTTTT [XGTACX_site8017]”, the “gcPBM binding intensity (ln)” value was 8.16 ± 0.4. With “ATAAAAATATTGTCTAGTACATATTTATAATAAAAA [XGTACX_site7523]” the “gcPBM binding intensity (ln)” value was 8.18 ± 0.35. “AGAAATATATCTATTTGTCCGTATATTCATATTTAT [XGTACX_site8427]” was tested, and the “gcPBM binding intensity (ln)” value was 8.61 ± 0.4. For “TATATACTCAAACACACACACACATACACAGACATA [CACACA_site5025]”, the “gcPBM binding intensity (ln)” value was 8.77 ± 0.57. In the case of “ATTTTTTTTTTTTTTTTTTTTGCACCATAAAATAAT [CACACA_negctrl_site1324]”, the “gcPBM binding intensity (ln)” value is reported as 8.42 ± 0.38. For “TATATATATATGTGTACACATTTGTCAGATTATATA [CACACA_site4813]”, the “gcPBM binding intensity (ln)” value was 9.89 ± 0.22. For “ATTTTGACATTATATAGTACATATAATTTACATTTA [XGTACX_site3024]”, the “gcPBM binding intensity (ln)” value was 8.56 ± 0.45. For “TATATATTCTTTTAATGTACATATTGTATTATATCC [XGTACX_site4501]”, the “gcPBM binding intensity (ln)” value was 8.72 ± 0.41. “ATATATTTAAACAAAAGTACAAATCATAAATTCAAG [XGTACX_site3633]” was tested, and the “gcPBM binding intensity (ln)” value was 8.38 ± 0.26. With “ATTTTTTAAAAAGTAACACACACTCTTATATATAAT [CACACA_site9206]” the “gcPBM binding intensity (ln)” value was 8.51 ± 0.48. “TCTTTATCTTCTTATACACACATTTATTAAAAAAAA [CACACA_site445]” was tested, and the “gcPBM binding intensity (ln)” value was 8.87 ± 0.56. “TGACATAAAAAATATACACACTATAATATTTATACT [CACACA_site6776]” was tested, and the “gcPBM binding intensity (ln)” value was 8.26 ± 0.4. For “AAAAGAAATTTGGGCACATGCGAATTTATAATTTAT [TGCATGCA_site960]”, the “gcPBM binding intensity (ln)” value was 8.61 ± 0.47. In the case of “TAAAGTATTACAACCACACACACACCGATATATTAT [CACACA_site9382]”, the “gcPBM binding intensity (ln)” value is reported as 8.68 ± 0.51. For “TAATTTAATAATTAGACACACATGTCTAAAATAAAA [CACACA_site2527]”, the “gcPBM binding intensity (ln)” value was 8 ± 0.35. With “TATATATATATATATACATGCATATTTTTTATTTTT [TGCATGCA_site464]” the “gcPBM binding intensity (ln)” value was 10.3 ± 0.31. “TATATTTATCTGATAACACACATAAATTAGACATTT [CACACA_site6887]” was tested, and the “gcPBM binding intensity (ln)” value was 8.26 ± 0.35. With “TGTCTTATATATATTACACACTATATGAAAAAATAT [CACACA_site1487]” the “gcPBM binding intensity (ln)” value was 8.47 ± 0.36. “TTTTTTATATATATTTGTACATATTGCATGTTCCCT [XGTACX_site7143]” was tested, and the “gcPBM binding intensity (ln)” value was 9.15 ± 0.38. “AATATGGTTATATATATATATATATATATATATATT [GTGCAC_negctrl_site566]” was tested, and the “gcPBM binding intensity (ln)” value was 8.945 ± 0.078. In the case of “CCTATCCATACATATACACACATATCTATTTATATA [CACACA_site1669]”, the “gcPBM binding intensity (ln)” value is reported as 8.76 ± 0.41. “TTTGAAATAAATAATGCACACTCTACATATATACGT [CACACA_site2244]” was tested, and the “gcPBM binding intensity (ln)” value was 8.655 ± 0.021. With “ATTGTTTTATATAGAACACACATAAAAATCTATATG [CACACA_site6681]” the “gcPBM binding intensity (ln)” value was 8.41 ± 0.45. In the case of “TTATTATATAAAATAAATAACAAAAAAAATAAAATA [GTGCAC_negctrl_site548]”, the “gcPBM binding intensity (ln)” value is reported as 8.45 ± 0.43. “CAACATTTATATTTTACACACATCATTTAAGCGCTT [CACACA_site992]” was tested, and the “gcPBM binding intensity (ln)” value was 8.54 ± 0.53. For “AAATAAAATACAAGTTGTACTATAAGCTTTTTATAT [XGTACX_site8021]”, the “gcPBM binding intensity (ln)” value was 8.48 ± 0.42. With “AATATATAAGTGTTGTGTACTAAAGTATTTTCCTAT [XGTACX_site1622]” the “gcPBM binding intensity (ln)” value was 8.59 ± 0.38. “AAAAAAAAAAGACACACACACATATTTATTTATATA [CACACA_site6484]” was tested, and the “gcPBM binding intensity (ln)” value was 8.35 ± 0.64. For “AGTAGATATAAAAGGAGTACACATATATATATAAAT [XGTACX_site4375]”, the “gcPBM binding intensity (ln)” value was 8.89 ± 0.34. In the case of “TTTAATTAAATATGTATATATATTCATGTATGTATA [GTGCAC_negctrl_site14]”, the “gcPBM binding intensity (ln)” value is reported as 8.31 ± 0.4. “CATATACAGAAACACACACACACATAAATAAATATA [CACACA_site1343]” was tested, and the “gcPBM binding intensity (ln)” value was 8.85 ± 0.56. In the case of “TGTTTTTGTGATCATATGAAAAAATTACCTACAAGG [CACACA_negctrl_site279]”, the “gcPBM binding intensity (ln)” value is reported as 8.62 ± 0.39. With “ATAGTTTTACACATTTGTACATAATTTACAACAAAA [XGTACX_site25]” the “gcPBM binding intensity (ln)” value was 8.69 ± 0.36. In the case of “ATAGTATCTGGTAGCTGTACGAGTCGTATAGTGCAG [XGTACX_site2542]”, the “gcPBM binding intensity (ln)” value is reported as 8.85 ± 0.35. “TTTCCGTATAATTTTGCACACGAATATAAATTTGAT [CACACA_site137]” was tested, and the “gcPBM binding intensity (ln)” value was 8.82 ± 0.35. With “AAAAAATATTATATATGTACATAATATTTTTTTTTT [XGTACX_site5909]” the “gcPBM binding intensity (ln)” value was 8.21 ± 0.33. “ATATATATATATTCCACACACACACTAATAAAAAAA [CACACA_site9214]” was tested, and the “gcPBM binding intensity (ln)” value was 9.94 ± 0.16. For “TTTAATCAAATTAAAAGTACAGAATTGTTCATGTAG [XGTACX_site1229]”, the “gcPBM binding intensity (ln)” value was 8.46 ± 0.35. For “TATGCTTTTACAATGTGTACTTATATTTTTCACAGG [XGTACX_site6201]”, the “gcPBM binding intensity (ln)” value was 8.81 ± 0.4. With “ATATATCATCATGTATGTACACACATACATATATTA [XGTACX_site2814]” the “gcPBM binding intensity (ln)” value was 8.64 ± 0.38. With “TAATTTTCAATAATTTGTACATAATTTTTATAAATT [XGTACX_site8133]” the “gcPBM binding intensity (ln)” value was 8.31 ± 0.28. With TATATAAATTAACCAGTGCATTATTTGGAAATTATT the “gcPBM binding intensity (ln)” value was 8.57 ± 0.057. For “AACCATAAAAAGTGTACACATATAAAAAATATGGAA [CACACA_site4199]”, the “gcPBM binding intensity (ln)” value was 9.12 ± 0.39. In the case of “ATATATATAGATCGAAGTACAGATAGAATGAAAATA [XGTACX_site2695]”, the “gcPBM binding intensity (ln)” value is reported as 9.07 ± 0.45. For “TAAAAAAATTTTACAAGTACAAAAAAATGTAATAAA [XGTACX_site4829]”, the “gcPBM binding intensity (ln)” value was 8.68 ± 0.41. “ACAAGAGAAAAAAATACACACAAGATAAAAATGTAT [CACACA_site607]” was tested, and the “gcPBM binding intensity (ln)” value was 8.76 ± 0.5. For “TAATAATAATTAAATTGTACATATAATATAATATAA [XGTACX_site8554]”, the “gcPBM binding intensity (ln)” value was 8.34 ± 0.38. In the case of “AATAAAGTAATAACTACACACATTTATAAAAAAGTA [CACACA_site3753]”, the “gcPBM binding intensity (ln)” value is reported as 8.51 ± 0.44. In the case of “ATATTATCATATTCGAGTACACGAAGTATTATTGCA [XGTACX_site6765]”, the “gcPBM binding intensity (ln)” value is reported as 8.66 ± 0.39. In the case of “TCTTATAAACATGTATATATTAAAAAAAAAAAAAAA [TGCATGCA_negctrl_site86]”, the “gcPBM binding intensity (ln)” value is reported as 8.1 ± 0.44. “TATAAGCTTTCAATGTGTACATATTATTTTATTATT [XGTACX_site3988]” was tested, and the “gcPBM binding intensity (ln)” value was 8.74 ± 0.4. AACATATTGGATTTAGTGCACATATATATCATAATA was tested, and the “gcPBM binding intensity (ln)” value was 8.88 ± 0.092. For “AAAAATTACCCTTGTGTACACATATATTATCTGTAT [CACACA_site4513]”, the “gcPBM binding intensity (ln)” value was 8.8 ± 0.29. For “TAAAAATTACTATATGAACACACATGATTAGATATA [CACACA_site9012]”, the “gcPBM binding intensity (ln)” value was 8.43 ± 0.49.
